Source: PubChem BioAssay AID1918944 (Molecular Pharmacology Branch, DTP, NCI, 2023)
For part of its entries the source gives two or more results. The other results are left out here. There may be further records. The values listed for one entry are repeated measurements (runs, samples, wells, individuals or studies). Additions like (4×) give the number of equal values in this list.

System: 786-0 complex spheroid viability
Experiment: Anticancer human tumor 786-0 cell line growth inhibition;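 further: spheroids exposed to agents for seven days before readout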
Conditions: stronger effect = lower value
Text: Multicellular complex tumor spheroid response to LSD1 Inhibitor Iadademstat in combination with a variety of drugs and investigational agents in selected tumor cell lines
The current study was undertaken to assess response to LSD1 inhibitors in combination with standard-of-care drugs and investigational agents in solid tumor complex spheroid models as well as in the K-562 leukemia. Complex spheroids include a stromal component modeled by human endothelial cells (HUVEC) and fibroblasts modeled by human mesenchymal stem cells (MSCs). The concentration ranges selected for each drug and investigational agent were based upon clinically achievable concentrations if the clinical Cmax of the agent was known.
Compounds. The drugs and investigational agents used in this study are listed on Table 1. All of the agents used, including staurosporine (NSC755774) and gemcitabine (NSC613327), were obtained from the Developmental Therapeutics Program, NCI. FDA-approved anticancer drugs are available from the NCI at http://dtp.nci.nih.gov/branches/dscb/oncology_drugset_explanation.html. Drugs and investigational agents were >95% pure by proton nuclear magnetic resonance (NMR) and liquid chromatography/mass spectrometry (LC/MS). […] If the clinical Cmax for an agent had not been determined, the highest concentration tested was 10 microM. […]

In the case of `NC1CC1c1ccc(-c2cccc(O)c2)cc1` (configuration not stated), the viability, T/C (compound alone 1 µM) was 105 (2×), 118, 97.3, 113 (3×), 107, 103 (2×), 109 (2×), 106, 112, 101, 102, 96, 91.3, 108, 94.7, 114, 99.8, 110, 97.1, 117% and the viability, T/C (compound alone 3.16 µM) was 107 (2×), 110 (3×), 93.2, 86.8, 108 (2×), 97.2, 103 (4×), 97, 93 (2×), 95.4, 92.1, 93.8, 104, 116, 98.7, 90.3, 111%.
